Assay results as given in a collection of fitness landscapes (doi:10.1126/science.1257360).
This is one part of the list.

B1: PhoQ; a variant is named by its letters at X, in order, P23837 (parent)
chain: MKKLLRLFFPLSLRVRFLLATAAVVLVLSLAYGMVALIGYSVSFDKTTFRLLRGESNLFYTLAKWENNKLHVELPENIDKQSPTMTLIYDENGQLLWAQRDVPWLMKMIQPDWLKSNGFHEIEADVNDTSLLLSGDHSIQQQLQEVREDDDDAEMTHSVAVNVYPATSRMPKLTIVVVDTIPVELKSSYMVWSWFIYVLSANLLLVIPLLWVAAWWSLRPIEALAKEVRELEEHNRELLNPATTRELTSLVRNLNRLLKSERERYDKYRTTLTDLTHSLKTPLXXLQXXLRSLRSEKMSVSDAEPVMLEQISRISQQIGYYLHRASMRGGTLLSRELHPVAPLLDNLTSALNKVYQRKGVNISLDISPEISFVGEQNDFVEVMGNVLDNACKYCLEFVEISARQTDEHLYIVVEDDGPGIPLSKREVIFDRGQRVDTLRPGQGVGLAVAREITEQYEGKIVAGESMLGGARMEVIFGRQHSAPKDE

Variants of: B1
Test: enrichment ratio after two sorts for PhoP signalling (ratio (wild type AVST 3.29)); higher = more functional
Conditions: with PhoP (E. coli)

Variant	enrichment ratio
SWCW	≤ 0.25
RRCN	0.458
PVVH	≤ 0.25
RLCQ	≤ 0.25
FPPW	≤ 0.25
TYNR	≤ 0.25
IHPY	≤ 0.25
KKSG	≤ 0.25
RLMA	≤ 0.25
NRVF	≤ 0.25
YKFH	≤ 0.25
SIEA	≤ 0.25
WHPW	≤ 0.25
ASTH	6.74
HKFC	≤ 0.25
PPMK	≤ 0.25
LHMY	≤ 0.25
FDHG	≤ 0.25
HYTT	≤ 0.25
YCWN	≤ 0.25
NQIS	≤ 0.25
TGVA	10.9
YGIE	≤ 0.25
GGQG	≤ 0.25
HPNE	≤ 0.25
HMCN	≤ 0.25

Variant	enrichment ratio
WMIW	≤ 0.25
HFYH	≤ 0.25
SDWT	≤ 0.25
MFQA	≤ 0.25
VAHY	≤ 0.25
MHIC	≤ 0.25
TSEF	≤ 0.25
STTP	≤ 0.25
HWYA	≤ 0.25
LKKG	≤ 0.25
MASK	≤ 0.25
WRVI	0.425
LPSH	≤ 0.25
AETR	3.45
RLMY	≤ 0.25
DKCG	≤ 0.25
HPSR	≤ 0.25
HLDM	≤ 0.25
WACL	≤ 0.25
SQWV	≤ 0.25
IHGH	≤ 0.25
PQGW	≤ 0.25
NGLN	≤ 0.25
KRPG	≤ 0.25
KRYF	≤ 0.25
PYPH	≤ 0.25

Variant	enrichment ratio
WFHQ	≤ 0.25
DCTV	≤ 0.25
KMQP	≤ 0.25
SPLG	≤ 0.25
SHDD	≤ 0.25
RFFH	≤ 0.25
VMCN	≤ 0.25
NFDL	≤ 0.25
IQTK	≤ 0.25
VVPI	≤ 0.25
LSTH	≤ 0.25
VMDP	≤ 0.25
QVDY	11.3
QAWE	≤ 0.25
YMVN	≤ 0.25
WCLA	≤ 0.25
GRIN	≤ 0.25
HIVW	≤ 0.25
VIGR	0.325
FDLE	≤ 0.25
SGHW	≤ 0.25
PFYT	≤ 0.25
GAEP	≤ 0.25
KAHM	≤ 0.25
LQDR	≤ 0.25
WIFC	≤ 0.25

Variant	enrichment ratio
MHIH	≤ 0.25
AHCN	≤ 0.25
YSKA	0.403
MSIT	≤ 0.25
DEWL	≤ 0.25
IDGN	≤ 0.25
DHFM	≤ 0.25
MMPD	≤ 0.25
IRDF	≤ 0.25
PKWS	≤ 0.25
CAIN	≤ 0.25
SWPV	≤ 0.25
MTFT	0.756
VYPC	≤ 0.25
SRWH	≤ 0.25
RETY	≤ 0.25
SYQL	≤ 0.25
IFVH	≤ 0.25
EPPN	≤ 0.25
WNNN	≤ 0.25
WEPM	≤ 0.25
VNMT	3.14
NQRR	≤ 0.25
KSYG	≤ 0.25
FIMY	≤ 0.25
HWHD	≤ 0.25

Variant	enrichment ratio
YTDG	≤ 0.25
FKMW	≤ 0.25
VCIN	≤ 0.25
RLVI	≤ 0.25
VFDM	≤ 0.25
GLTG	1.09
FDGY	≤ 0.25
IFFI	≤ 0.25
LKGI	≤ 0.25
TRFH	≤ 0.25
GRRS	≤ 0.25
IVHD	≤ 0.25
WLIS	≤ 0.25
TMWY	≤ 0.25
IGGR	≤ 0.25
KYWD	≤ 0.25
CAIT	≤ 0.25
LIWR	≤ 0.25
APQI	≤ 0.25
RPCG	≤ 0.25
APQD	≤ 0.25
KKMS	≤ 0.25
LVCQ	≤ 0.25
LTYP	≤ 0.25
NWRY	≤ 0.25
ERTM	≤ 0.25

Variant	enrichment ratio
IYIE	≤ 0.25
EANF	≤ 0.25
PLCN	≤ 0.25
GHFE	≤ 0.25
AKMF	≤ 0.25
TNVN	0.832
VKTQ	≤ 0.25
VKRV	≤ 0.25
FGRW	≤ 0.25
PRCP	≤ 0.25
VNMP	≤ 0.25
ASYA	≤ 0.25
YKTV	≤ 0.25
MIAD	≤ 0.25
VALK	≤ 0.25
FNLA	≤ 0.25
NHFE	≤ 0.25
DCYC	≤ 0.25
KFFL	≤ 0.25
IIGH	≤ 0.25
LGPY	≤ 0.25
RMVL	≤ 0.25
YHLA	≤ 0.25
